The IC50 comes from the fitted curve, where viability falls to half of the control; where the fit passes the top or lowest dose, that dose stands as a limit. The AUC spans the tested range (256-fold, ending at the top dose) of the same fit; values near 1 show little effect. For some assays here: An inferred top dose was calculated from the reported fits. For some assays here: Drugs with an entry number were screened twice under separate entries, and the two screens often disagree.
Assays:
Assay in all cases: Viability of human cancer cell lines after 72 h of drug (GDSC screen)
BX-912 = compound: O=C(Nc1cccc(Nc2ncc(Br)c(NCCc3cnc[nH]3)n2)c1)N1CCCC1 [BX-912]; details: top dose 10.24 µM; top dose inferred
Description: (§1)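 Human cancer cell lines in 384-well plates, medium with 10% serum, drug for 72 h over a 256-fold dose range (nine 2-fold or five 4-fold steps up to the top dose). Adherent lines were fixed and stained with the nucleic acid dye Syto60, suspension lines read with resazurin; signal relative to control wells, capped at 0 and 100%. One two-parameter sigmoid per drug and line, fitted in a mixed model over all curves with the slope shared within a line.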

VNLG/124 = compound: CCCC(=O)OCc1ccc(OC(=O)/C=C(C)/C=C/C=C(C)/C=C/C2=C(C)CCCC2(C)C)cc1 [VNLG/124]; details: top dose 5.12 µM; top dose inferred
Description: as §1

Bleomycin = compound: Cc1c(N)nc([C@H](CC(N)=O)NC[C@H](N)C(N)=O)nc1C(=O)N[C@H](C(=O)N[C@H](C)[C@@H](O)[C@H](C)C(=O)N[C@H](C(=O)NCCc1nc(-c2nc(C(=O)NCCC[S+](C)C)cs2)cs1)[C@@H](C)O)[C@@H](OC1OC(CO)C(O)C(O)C1OC1OC(CO)C(O)C(OC(N)=O)C1O)c1cnc[nH]1 [Bleomycin]
Description: as §1

NSC-87877 = compound: O=S(=O)(O)c1ccc2cc(N=Nc3cc(S(=O)(=O)O)c4cccnc4c3O)ccc2c1 [NSC-87877]; details: top dose 16 µM; top dose inferred
Description: as §1

OSI-930 = compound: O=C(Nc1ccc(OC(F)(F)F)cc1)c1sccc1NCc1ccnc2ccccc12 [OSI-930]; details: top dose 10.24 µM
Description: as §1

LAQ824 = compound: O=C(/C=C/c1ccc(CN(CCO)CCc2c[nH]c3ccccc23)cc1)NO [LAQ824]; details: top dose 1.024 µM; top dose inferred
Description: as §1

Tamoxifen = compound: CC/C(=C(\c1ccccc1)c1ccc(OCCN(C)C)cc1)c1ccccc1 [Tamoxifen]; details: top dose 5 µM
Description: as §1

Masitinib = compound: Cc1ccc(NC(=O)c2ccc(CN3CCN(C)CC3)cc2)cc1Nc1nc(-c2cccnc2)cs1 [Masitinib]; details: top dose 20 µM
Description: as §1

HG-5-88-01 = compound: COc1cc(N2CCC(C(N)=O)CC2)ccc1Nc1nc(N)c(Cl)c(Nc2ccccc2S(=O)(=O)C(C)C)n1 [HG-5-88-01]; details: top dose 10 µM; top dose inferred
Description: as §1

Elesclomol = compound: CN(NC(=O)CC(=O)NN(C)C(=S)c1ccccc1)C(=S)c1ccccc1 [Elesclomol]; details: top dose 0.2 µM; top dose inferred
Description: as §1

[1] = top dose 50 µM, screen: GDSC drug entry 1378, top dose inferred
[2] = top dose 64 µM, screen: GDSC drug entry 190

Cell Line | AUC (BX-912) | IC50 (BX-912) [µM] | AUC (VNLG/124) | IC50 (VNLG/124) [µM] | AUC (Bleomycin; [1]) | IC50 (Bleomycin; [1]) [µM] | AUC (Bleomycin; [2]) | IC50 (Bleomycin; [2]) [µM] | AUC (NSC-87877) | IC50 (NSC-87877) [µM] | AUC (OSI-930) | IC50 (OSI-930) [µM] | AUC (LAQ824) | IC50 (LAQ824) [µM] | AUC (Tamoxifen) | IC50 (Tamoxifen) [µM] | AUC (Masitinib) | IC50 (Masitinib) [µM] | AUC (HG-5-88-01) | IC50 (HG-5-88-01) [µM] | AUC (Elesclomol) | IC50 (Elesclomol) [µM]
Mo-T (hairy cell leukaemia, suspension) | 0.96 | > 10.2 | 0.973 | > 5.12 | 0.578 | 5.13 | 0.903 | > 64 | 0.976 | > 16 | 0.945 | > 10.2 | 0.865 | 0.937 | 0.978 | > 5 | 0.865 | 18.3 | 0.952 | > 10 | 0.439 | 0.00849
NALM-6 (B-cell leukaemia, suspension) | 0.416 | 0.392 | 0.948 | > 5.12 | 0.814 | 21.9 | 0.179 | 0.542 | 0.987 | > 16 | 0.838 | 5.37 | 0.209 | 0.0108 | 0.972 | > 5 | 0.676 | 3.52 | 0.984 | > 10 | 0.986 | > 0.2
NAMALWA (Burkitt lymphoma, suspension) | 0.734 | 2.61 | 0.588 | 0.535 | 0.75 | 14.1 | 0.726 | 15.5 | 0.989 | > 16 | 0.954 | > 10.2 | 0.366 | 0.0292 | 0.984 | > 5 | 0.886 | 16 | 0.983 | > 10 | 0.452 | 0.00943
NB5 (neuroblastoma, adherent) | 0.9 | > 10.2 | 0.987 | > 5.12 | 0.465 | 2.5 | 0.585 | 6.84 | 0.978 | > 16 | 0.966 | > 10.2 | 0.558 | 0.0925 | 0.963 | > 5 | 0.909 | > 20 | 0.893 | > 10 | 0.608 | 0.0249
NB6 (neuroblastoma, adherent) | 0.838 | 9.31 | 0.814 | 3.61 | 0.974 | > 50 | 0.896 | > 64 | 0.839 | 14.7 | 0.984 | > 10.2 | 0.483 | 0.0569 | 0.982 | > 5 | 0.87 | > 20 | 0.982 | > 10 | 0.81 | 0.137
NB10 (neuroblastoma, adherent) | 0.929 | > 10.2 | 0.984 | > 5.12 | 0.227 | 0.512 | 0.655 | 10.6 | 0.979 | > 16 | 0.958 | > 10.2 | 0.566 | 0.0962 | 0.987 | > 5 | 0.941 | > 20 | 0.89 | > 10 | 0.57 | 0.0193
NB13 (neuroblastoma, adherent) | 0.947 | > 10.2 | 0.978 | > 5.12 | 0.744 | 14.1 | 0.83 | 34.1 | 0.988 | > 16 | 0.971 | > 10.2 | 0.383 | 0.0318 | 0.99 | > 5 | 0.961 | > 20 | 0.908 | > 10 | 0.6 | 0.0227
NB14 (neuroblastoma, adherent) | 0.91 | > 10.2 | 0.987 | > 5.12 | 0.606 | 5.99 | 0.715 | 15.5 | 0.988 | > 16 | 0.987 | > 10.2 | 0.429 | 0.0415 | 0.983 | > 5 | 0.907 | > 20 | 0.619 | 1.31 | 0.314 | 0.0039
NB(TU)1-10 (neuroblastoma, adherent) | 0.989 | > 10.2 | 0.973 | > 5.12 | 0.973 | > 50 | 0.816 | 29.7 | 0.981 | > 16 | 0.982 | > 10.2 | 0.325 | 0.0225 | 0.993 | > 5 | 0.961 | > 20 | 0.993 | > 10 | 0.985 | > 0.2
NB-4 (acute myeloid leukaemia, suspension) | 0.414 | 0.39 | 0.943 | > 5.12 | 0.57 | 4.67 | 0.421 | 2.53 | 0.991 | > 16 | 0.89 | 8.04 | 0.141 | 0.00669 | 0.975 | > 5 | 0.888 | 15.5 | 0.856 | 5.87 | 0.382 | 0.00631
NCI-H28 (mesothelioma, adherent) | 0.973 | > 10.2 | 0.981 | > 5.12 | 0.571 | 5.18 | 0.374 | 1.61 | 0.981 | > 16 | 0.973 | > 10.2 | 0.483 | 0.0566 | 0.978 | > 5 | 0.96 | > 20 | 0.891 | > 10 | 0.54 | 0.0166
NCI-H82 (small cell lung carcinoma, suspension) | 0.784 | 4.11 | 0.973 | > 5.12 | 0.854 | 36.1 | 0.932 | > 64 | 0.985 | > 16 | 0.989 | > 10.2 | 0.551 | 0.0873 | 0.964 | > 5 | 0.98 | > 20 | 0.965 | > 10 | 0.62 | 0.0263
NCI-H226 (lung squamous cell carcinoma, adherent) | 0.851 | 8.45 | 0.987 | > 5.12 | 0.61 | 6.38 | 0.86 | 58.3 | 0.976 | > 16 | 0.964 | > 10.2 | 0.481 | 0.0565 | 0.986 | > 5 | 0.881 | > 20 | 0.906 | > 10 | 0.821 | 0.124
NCI-H292 (lung adenocarcinoma, adherent) | 0.908 | > 10.2 | 0.915 | > 5.12 | 0.076 | < 0.195 | 0.308 | 1.03 | 0.98 | > 16 | 0.978 | > 10.2 | 0.552 | 0.0912 | 0.904 | > 5 | 0.978 | > 20 | 0.806 | 6.44 | 0.189 | 0.00115
NCI-H345 (small cell lung carcinoma, suspension) | 0.987 | > 10.2 | 0.99 | > 5.12 | 0.958 | > 50 | 0.972 | > 64 | 0.99 | > 16 | 0.982 | > 10.2 | 0.789 | 0.478 | 0.989 | > 5 | 0.99 | > 20 | 0.968 | > 10 | 0.969 | > 0.2
NCI-H441 (lung adenocarcinoma, adherent) | 0.978 | > 10.2 | 0.975 | > 5.12 | 0.803 | 37.8 | 0.595 | 8.08 | 0.981 | > 16 | 0.967 | > 10.2 | 0.501 | 0.0646 | 0.934 | > 5 | 0.969 | > 20 | 0.825 | 9.71 | 0.981 | > 0.2
NCI-H446 (small cell lung carcinoma, semi-adherent) | 0.698 | 2.42 | 0.982 | > 5.12 | 0.807 | 27.9 | 0.739 | 20.4 | 0.985 | > 16 | 0.985 | > 10.2 | 0.571 | 0.101 | 0.932 | > 5 | 0.761 | 7.56 | 0.897 | > 10 | 0.935 | > 0.2
NCI-H524 (small cell lung carcinoma, suspension) | 0.621 | 1.32 | 0.99 | > 5.12 | 0.916 | > 50 | 0.939 | > 64 | 0.989 | > 16 | 0.991 | > 10.2 | 0.677 | 0.187 | 0.984 | > 5 | 0.963 | > 20 | 0.937 | > 10 | 0.677 | 0.0367
NCI-H650 (lung adenocarcinoma, adherent) | 0.808 | 5.98 | 0.986 | > 5.12 | 0.834 | 37.2 | 0.865 | > 64 | 0.974 | > 16 | 0.971 | > 10.2 | 0.658 | 0.185 | 0.985 | > 5 | 0.945 | > 20 | 0.888 | > 10 | 0.628 | 0.0293
NCI-H716 (large intestine, suspension) | 0.579 | 1.11 | 0.941 | > 5.12 | 0.903 | > 50 | 0.97 | > 64 | 0.969 | > 16 | 0.923 | > 10.2 | 0.801 | 0.658 | 0.951 | > 5 | 0.876 | > 20 | 0.849 | > 10 | 0.651 | 0.0367
NCI-H720 (lung carcinoid, suspension) | 0.99 | > 10.2 | 0.977 | > 5.12 | 0.975 | > 50 | 0.909 | > 64 | 0.982 | > 16 | 0.983 | > 10.2 | 0.977 | > 1.02 | 0.987 | > 5 | 0.984 | > 20 | 0.984 | > 10 | 0.849 | 0.131
NCI-H747 (large intestine, adherent) | 0.791 | 5.75 | 0.94 | > 5.12 | 0.622 | 7.31 | 0.33 | 1.2 | 0.979 | > 16 | 0.903 | > 10.2 | 0.439 | 0.0421 | 0.975 | > 5 | 0.904 | > 20 | 0.85 | > 10 | 0.726 | 0.0639
NCI-H810 (large cell lung carcinoma, adherent) | 0.764 | 3.56 | 0.986 | > 5.12 | 0.888 | > 50 | 0.8 | 29.4 | 0.988 | > 16 | 0.978 | > 10.2 | 0.233 | 0.0112 | 0.983 | > 5 | 0.806 | 9.62 | 0.987 | > 10 | 0.828 | 0.117

— the supplement of paper PMC4967469
